The source of these data is publication PMC4336329 (PLoS ONE, 2015).

Structures are written as SMILES. The campaign covered roughly 310,000 compounds. About 14,000 (4.5%) showed an effect of 50% or more. The effect is printed as a negative number. The list shows a part of the results.
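Note: peak tail current of the secondary pulse compared with the same well before compound.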

For the assay, the target named is human ether-à-go-go-related gene (hERG) potassium channel (human, UniProt Q12809). Put plainly: primary screen, population patch clamp on CHO cells stably expressing hERG.
human ether-à-go-go-related gene (hERG) potassium channel, sequence (Q12809 whole entry, looked up): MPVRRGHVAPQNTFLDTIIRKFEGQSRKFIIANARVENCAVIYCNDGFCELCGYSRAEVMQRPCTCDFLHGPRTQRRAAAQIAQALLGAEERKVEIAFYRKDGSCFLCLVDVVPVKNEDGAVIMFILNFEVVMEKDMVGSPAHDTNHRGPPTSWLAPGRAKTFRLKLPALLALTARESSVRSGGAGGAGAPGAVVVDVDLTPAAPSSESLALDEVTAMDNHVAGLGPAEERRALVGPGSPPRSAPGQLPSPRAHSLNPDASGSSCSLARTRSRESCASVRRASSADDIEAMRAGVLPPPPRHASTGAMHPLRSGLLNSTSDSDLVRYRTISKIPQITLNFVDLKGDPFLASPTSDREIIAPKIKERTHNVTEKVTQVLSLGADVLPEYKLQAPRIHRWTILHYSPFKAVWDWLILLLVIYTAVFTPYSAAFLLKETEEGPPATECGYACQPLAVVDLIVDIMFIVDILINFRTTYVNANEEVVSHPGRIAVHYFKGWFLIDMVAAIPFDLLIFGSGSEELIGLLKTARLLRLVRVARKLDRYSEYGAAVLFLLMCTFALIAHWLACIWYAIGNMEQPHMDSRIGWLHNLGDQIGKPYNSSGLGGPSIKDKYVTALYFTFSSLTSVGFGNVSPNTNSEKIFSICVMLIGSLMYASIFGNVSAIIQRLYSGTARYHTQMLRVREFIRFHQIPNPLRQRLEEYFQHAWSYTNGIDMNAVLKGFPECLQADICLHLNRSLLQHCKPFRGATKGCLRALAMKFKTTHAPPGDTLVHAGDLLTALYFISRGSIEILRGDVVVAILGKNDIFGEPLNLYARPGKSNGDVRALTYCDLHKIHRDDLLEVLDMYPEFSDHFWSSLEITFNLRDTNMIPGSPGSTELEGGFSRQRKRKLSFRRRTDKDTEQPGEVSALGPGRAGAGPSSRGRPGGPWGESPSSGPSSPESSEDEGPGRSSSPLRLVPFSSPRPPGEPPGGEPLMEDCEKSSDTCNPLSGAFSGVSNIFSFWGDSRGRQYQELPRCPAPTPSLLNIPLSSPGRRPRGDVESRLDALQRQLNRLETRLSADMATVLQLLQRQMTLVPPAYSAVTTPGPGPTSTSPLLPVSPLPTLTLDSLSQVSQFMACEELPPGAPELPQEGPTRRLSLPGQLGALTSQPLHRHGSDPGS
With `COc1ccc(CCNC(=O)C2C3CCC(C3)C2C(=O)O)cc1OC` (centres unmarked), the “hERG current change (%, negative = inhibition) at 10uM” value is recorded as 18.4%.

In the case of `O=C(NCc1ccccc1)c1ccc2c(c1)OCCO2`, the “hERG current change (%, negative = inhibition) at 10uM” value came out at 9.1%.

As for `COc1ccc(N2C(=O)CC(c3ccccc3)CC2=O)cc1`, the “hERG current change (%, negative = inhibition) at 10uM” value is 16.7%.

For the compound `CC1(C)Cc2c(C#N)c(SCC(=O)O)nc(N3CCOCC3)c2CO1`, the “hERG current change (%, negative = inhibition) at 10uM” value stood at 22.2%.

Regarding `O=C(CCNS(=O)(=O)c1cccs1)N1CCN(c2cccc(Cl)c2)CC1`, the “hERG current change (%, negative = inhibition) at 10uM” value is on record as -10.3%.

`COc1ccc(CNC(=O)COc2cc3c(c4oc(=O)cc(C)c24)CCC(C)(C)O3)cc1`: the “hERG current change (%, negative = inhibition) at 10uM” value is -7.99%.

As for `CCCC(=O)NC(=S)Nc1cccc(NC(=O)c2ccccc2)c1`, the “hERG current change (%, negative = inhibition) at 10uM” value was -1.54%.

As for `Cn1c(=O)c2c(nc(Oc3ccc(-c4ccccc4)cc3)n2C)n(C)c1=O`, the “hERG current change (%, negative = inhibition) at 10uM” value is -3.81%.

`CS(=O)(=O)N(CC(=O)NCCSC1CCCCC1)c1cccc(F)c1`: the “hERG current change (%, negative = inhibition) at 10uM” value is 1.25%.

`CC(=O)Nc1ccc2[nH]c3ccccc3c2c1`: the “hERG current change (%, negative = inhibition) at 10uM” value was -1.66%.

`COc1cc(Cl)ccc1OCc1cc(C(=O)NC2CCc3ccccc32)no1` (centres unmarked): the “hERG current change (%, negative = inhibition) at 10uM” value was 12.1%.

In the case of `Cc1ccc(-c2nnc(-c3ccccc3)o2)cc1Br`, the “hERG current change (%, negative = inhibition) at 10uM” value is 7.16%.

Consider `Cc1onc(-c2ccccc2)c1C(=O)c1ccccc1`, for which the “hERG current change (%, negative = inhibition) at 10uM” value came to 3.87%.

Consider `O=S1(=O)CCOCCCN1Cc1cccc(F)c1`, for which the “hERG current change (%, negative = inhibition) at 10uM” value is listed as 9.64%.

In the case of `O=c1c2ccccc2nc2n1CCC2`, the “hERG current change (%, negative = inhibition) at 10uM” value is reported as 13.6%.

As to `Cc1ccc(OCCN2CCN(C(=O)CCC(=O)Nc3nnc(C(C)C)s3)CC2)cc1`, the “hERG current change (%, negative = inhibition) at 10uM” value is -1.46%.

As to `CC1CCCN(S(=O)(=O)c2ccc(C(=O)Nc3sc4c(c3C(N)=O)CCN(C)C4)cc2)C1` (centres unmarked), the “hERG current change (%, negative = inhibition) at 10uM” value is on record as -4.95%.

Regarding `Cc1cc(C)c(NC(=O)CNC(=O)c2ccccc2SCC(=O)N2CCCC2)c(C)c1`, the “hERG current change (%, negative = inhibition) at 10uM” value is on record as 13.9%.

On to `CCn1c(C)nc2c(C)[n+](CC(=O)c3ccc(Br)cc3)ccc21.[Br-]`, for which the “hERG current change (%, negative = inhibition) at 10uM” value is 11.5%.

For `CCN(C(=O)c1ccco1)c1nnc(-c2cccnc2)s1`, the “hERG current change (%, negative = inhibition) at 10uM” value is 6.86%.

With `Cc1c(C(=O)Nc2ccccc2)c2cc(O)ccc2n1Cc1ccccc1`, the “hERG current change (%, negative = inhibition) at 10uM” value came to 4.2%.

As to `O=C(CCNC(=O)c1ccco1)Nc1ccccc1OC(F)F`, the “hERG current change (%, negative = inhibition) at 10uM” value worked out at 10.4%.

For the compound `CC(=O)Oc1ccccc1C(=O)Nc1ccccc1C(=O)N1CCCCC1`, the “hERG current change (%, negative = inhibition) at 10uM” value is -6.86%.

For the compound `COc1ccc(Cl)cc1NC(=O)[C@@]1(CC(=O)O)CC(/C=C/c2ccccc2)=NO1`, the “hERG current change (%, negative = inhibition) at 10uM” value was determined as 26.3%.

As for `CC1=Nc2ccccc2/C1=C/c1c(O)[nH]c(=O)[nH]c1=O`, the “hERG current change (%, negative = inhibition) at 10uM” value is listed as 11%.

Take `CCOC(=O)C1CCCN(C(=O)Cn2sc3nc(C)cc(C)c3c2=O)C1` (centres unmarked): the “hERG current change (%, negative = inhibition) at 10uM” value was 4.37%.

As to `Cc1ccc(S(=O)(=O)N2CCN(C(=O)COC(=O)/C=C/c3ccccc3)CC2)c(C)c1`, the “hERG current change (%, negative = inhibition) at 10uM” value was -7.67%.

Regarding `O=C(NCc1ccco1)c1c(F)cccc1Cl`, the “hERG current change (%, negative = inhibition) at 10uM” value stood at 9.04%.

As to `C/C(=N\NC(=O)c1cccc(S(=O)(=O)N2CCCC2)c1)c1ccccc1F`, the “hERG current change (%, negative = inhibition) at 10uM” value came to 8.25%.

As for `COc1ccc(-c2oc(=O)c3cc(OC)c(OC)cc3c2C(F)(F)F)cc1`, the “hERG current change (%, negative = inhibition) at 10uM” value is recorded as 23.7%.

Take `COc1ccccc1NC(=O)NCCCN1CCN(c2cccc(Cl)c2)CC1`: the “hERG current change (%, negative = inhibition) at 10uM” value is -73.7%.

Take `CC(C)CCOc1ccc(C2(C)NC(=O)NC2=O)cc1` (centres unmarked): the “hERG current change (%, negative = inhibition) at 10uM” value stood at 8.06%.

As to `O=C(O)C(=O)O.O=C(c1ccccc1)c1ccc(OCC(O)CNCc2ccc(Cl)cc2)cc1` (centres unmarked), the “hERG current change (%, negative = inhibition) at 10uM” value is -66.6%.

On to `Nc1nc2n(n1)C(c1cccc(Br)c1)CC(c1ccccc1)N2` (centres unmarked), for which the “hERG current change (%, negative = inhibition) at 10uM” value was -14.1%.

With `O=C(O)C1CC(O)CN1c1nc(Cl)ccc1[N+](=O)[O-]` (centres unmarked), the “hERG current change (%, negative = inhibition) at 10uM” value is reported as 8.17%.

Regarding `CC1CN(C(=O)c2cc3c(s2)CCC3)CC(C)O1` (centres unmarked), the “hERG current change (%, negative = inhibition) at 10uM” value was -9.56%.

On to `O=C(Nc1ccc(NC(=S)NC(=O)c2ccccc2Cl)cc1)c1cccc(Cl)c1`, for which the “hERG current change (%, negative = inhibition) at 10uM” value is listed as 12.8%.

For the compound `Cc1ccc(NC(=S)NNC(=O)c2nn(C)cc2Cl)cc1`, the “hERG current change (%, negative = inhibition) at 10uM” value is listed as 7.28%.

Regarding `O=C1NC(c2cc3c(cc2Cl)OCO3)Oc2ccccc21` (centres unmarked), the “hERG current change (%, negative = inhibition) at 10uM” value is -12.7%.

For the compound `COc1ccc(C(C)=O)cc1CC(C(=O)c1ccccc1)N(C)C.Cl` (centres unmarked), the “hERG current change (%, negative = inhibition) at 10uM” value worked out at 5.17%.

As for `CC(=O)N1CCN(C(=S)c2ccc(N(C)C)cc2)CC1`, the “hERG current change (%, negative = inhibition) at 10uM” value is on record as -0.806%.

Turning to `Cc1ccc(S(=O)(=O)N(C)C)cc1NC(=O)c1cc(=O)[nH]c2ccccc12`, the “hERG current change (%, negative = inhibition) at 10uM” value is listed as 11.9%.

Regarding `CCc1nn(CCCC(=O)NCc2ccco2)c(=O)c2cc3occc3n12`, the “hERG current change (%, negative = inhibition) at 10uM” value is -14%.

For `Cc1cccc(N2CCN(CC(=O)Nc3ccc(-n4cnnn4)cc3)CC2)c1C`, the “hERG current change (%, negative = inhibition) at 10uM” value stood at 12.8%.
